The text below walks through data of the BET-seq Pho4 binding data (Le et al. 2018).

This is one part of the list. These are noisy estimates, calculated here from bound and input reads.

The assay concerns the target T1, Pho4 (S. cerevisiae) (UniProt P07270).
T1 sequence: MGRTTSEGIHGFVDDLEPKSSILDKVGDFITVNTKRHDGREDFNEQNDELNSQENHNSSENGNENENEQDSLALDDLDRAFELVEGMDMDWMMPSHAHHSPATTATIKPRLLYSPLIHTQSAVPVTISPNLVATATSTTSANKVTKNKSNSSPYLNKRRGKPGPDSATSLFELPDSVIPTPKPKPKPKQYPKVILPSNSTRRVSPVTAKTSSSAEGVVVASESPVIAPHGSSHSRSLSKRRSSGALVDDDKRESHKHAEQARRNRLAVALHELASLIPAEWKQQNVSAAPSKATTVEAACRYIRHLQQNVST
Nature of the assay: relative binding free energy (BET-seq); higher = weaker binding. The settings on record: reference: library average.
For TATAGCACGTGTTTTT, the “relative binding free energy” value is -0.19 kcal/mol. Under TGGGTCACGTGGTGTC stands 0.08 kcal/mol. The same measure for GTTGTCACGTGAGGTC: 0.43 kcal/mol. As to GTAATCACGTGCCGGG, the “relative binding free energy” value is 0.17 kcal/mol.

CATTACACGTGTGTGA: the “relative binding free energy” value turned out to be 0.15 kcal/mol.

As for TTATGCACGTGCAATT, the “relative binding free energy” value amounted to 0.02 kcal/mol. As to ACGGTCACGTGGACTG, the “relative binding free energy” value stood at 0.28 kcal/mol. Under AGTTACACGTGGTTGC stands 0.08 kcal/mol.

On to TCATGCACGTGTTAGT, for which the “relative binding free energy” value is -0.18 kcal/mol.

As for TGCAGCACGTGTAATG, the “relative binding free energy” value is 0.01 kcal/mol. Under GCTGTCACGTGGGATA stands 0.13 kcal/mol.

As to AAATCCACGTGAGTGT, the “relative binding free energy” value was 0.39 kcal/mol. The same measure for TTTTGCACGTGGTACT: -0.08 kcal/mol; for CTCGTCACGTGGTGAG: 0.03 kcal/mol. As for AAATACACGTGAAGGG, the “relative binding free energy” value amounted to 0.26 kcal/mol. On to TCTTTCACGTGGAGAT, for which the “relative binding free energy” value amounted to 0.17 kcal/mol. The same measure for TAAGGCACGTGGAGTC: -0.08 kcal/mol; for GGGCGCACGTGCTGGA: -0.1 kcal/mol; for CAGTGCACGTGTGAAT: 0.13 kcal/mol. The same measure for AATGTCACGTGGTGGG: 0.02 kcal/mol; for TTTTGCACGTGTGGTG: 0.08 kcal/mol; for ATTGGCACGTGGATCG: -0.15 kcal/mol. Regarding ATGAACACGTGATTAG, the “relative binding free energy” value amounted to 0.18 kcal/mol. Consider TTGTACACGTGTTGAG, for which the “relative binding free energy” value stood at 0.13 kcal/mol. The same measure for ATTATCACGTGGGATG: 0.03 kcal/mol; for TGGATCACGTGTTGGG: 0.18 kcal/mol. The same measure for TGTTGCACGTGGGCGC: -0.06 kcal/mol. Consider GTTTACACGTGGGCGA, for which the “relative binding free energy” value amounted to 0.05 kcal/mol. Under CTTTGCACGTGGTATA stands -0.08 kcal/mol. Under AATATCACGTGGTTGG stands 0.03 kcal/mol; under ATATACACGTGTGGGA, 0.07 kcal/mol. Consider ATTTACACGTGGGAGC, for which the “relative binding free energy” value amounted to 0.02 kcal/mol. The same measure for GGGTGCACGTGCTGTC: -0.06 kcal/mol. Turning to TGAATCACGTGTACGT, the “relative binding free energy” value was found to be 0.14 kcal/mol. In the case of GATTTCACGTGGTTAA, the “relative binding free energy” value came out at 0.22 kcal/mol. Under TTTCGCACGTGGAGGG stands -0.11 kcal/mol.

For TAGGGCACGTGCCGGT, the “relative binding free energy” value was -0.21 kcal/mol. Under AGATTCACGTGCTAGG stands 0.16 kcal/mol.

Take ATTTACACGTGCGGTA: the “relative binding free energy” value came to 0 kcal/mol. Regarding GGTGTCACGTGAGACG, the “relative binding free energy” value turned out to be 0.1 kcal/mol. For ATTGTCACGTGCGAGA, the “relative binding free energy” value amounted to 0.09 kcal/mol. For the sequence CCTGGCACGTGGGGAG, the “relative binding free energy” value was -0.18 kcal/mol. On to ATCTTCACGTGGGGAG, for which the “relative binding free energy” value was found to be 0.07 kcal/mol.

CGAAGCACGTGGCGGG: the “relative binding free energy” value is -0.17 kcal/mol. For the sequence GCGTCCACGTGGTTGT, the “relative binding free energy” value came to 0.1 kcal/mol. For AGAGTCACGTGGTAAA, the “relative binding free energy” value was determined as 0.25 kcal/mol. The same measure for TGGCACACGTGTGCTG: 0.15 kcal/mol; for ATGGACACGTGGGTCT: -0.02 kcal/mol. Under ATTGACACGTGTTGTA stands -0.07 kcal/mol; under TGGTTCACGTGGTTGT, 0.29 kcal/mol; under AAGGCCACGTGTATGG, 0 kcal/mol.

Turning to GCTTGCACGTGTGCTG, the “relative binding free energy” value came to 0.01 kcal/mol. For the sequence GGATTCACGTGGAGGT, the “relative binding free energy” value came out at 0.38 kcal/mol. The same measure for CGTAACACGTGAGAGG: 0.29 kcal/mol. The same measure for GGTGCCACGTGAGTGC: 0.21 kcal/mol; for GGTACCACGTGATGGG: 0.18 kcal/mol; for CAGTGCACGTGTTTTG: -0.12 kcal/mol. Under TTGTTCACGTGACCTT stands 0.44 kcal/mol; under GAGGTCACGTGCTTGT, 0.1 kcal/mol.

Regarding CGGAGCACGTGGTGGC, the “relative binding free energy” value is -0.18 kcal/mol. The same measure for TCCAGCACGTGGGGTT: -0.14 kcal/mol; for TTTGGCACGTGACAAG: -0.07 kcal/mol; for ACGTACACGTGTTTTT: 0.08 kcal/mol.

Consider TAGCTCACGTGTGGGT, for which the “relative binding free energy” value came out at 0.28 kcal/mol.

In the case of ATATACACGTGTGCGG, the “relative binding free energy” value is 0.1 kcal/mol. The same measure for TACGTCACGTGTAGGC: 0.15 kcal/mol; for AGGGACACGTGATAGG: 0.07 kcal/mol. Under TGGTACACGTGTGCAG stands 0.2 kcal/mol.

As for AGTGACACGTGGTAGC, the “relative binding free energy” value was found to be 0.03 kcal/mol. Under GTTTACACGTGTGTCA stands 0.17 kcal/mol; under TAGATCACGTGTGCGT, -0.01 kcal/mol; under CTGGTCACGTGTAATG, 0.14 kcal/mol. In the case of ATATGCACGTGCAGGT, the “relative binding free energy” value is -0.07 kcal/mol. As to TTCGTCACGTGTGCGA, the “relative binding free energy” value came out at 0.06 kcal/mol. Under GGTGCCACGTGAGTCG stands 0.27 kcal/mol; under GTTTTCACGTGAGATT, 0.31 kcal/mol.

As to CAGTGCACGTGGCGTG, the “relative binding free energy” value is -0.27 kcal/mol. GTAGGCACGTGTGAGC: the “relative binding free energy” value is 0.03 kcal/mol. The same measure for TTTGTCACGTGGCGAT: 0 kcal/mol; for GTATGCACGTGAAAGT: 0.23 kcal/mol; for CGTTTCACGTGGATGT: 0.29 kcal/mol.

Take ACGCGCACGTGGTGGG: the “relative binding free energy” value is -0.32 kcal/mol. Under ATGTCCACGTGGTATT stands -0.04 kcal/mol; under GGGCACACGTGTGTAG, 0.16 kcal/mol. The same measure for TACCGCACGTGGAGGT: 0.02 kcal/mol; for GTGGGCACGTGGAATG: 0.12 kcal/mol; for TGCGTCACGTGATCGG: 0.1 kcal/mol. The same measure for TTGTACACGTGTTCAT: -0.05 kcal/mol; for ATGTTCACGTGGGCTT: 0.22 kcal/mol. As to GTTTACACGTGTTTGA, the “relative binding free energy” value came to 0.26 kcal/mol. In the case of ATAAACACGTGTGTTT, the “relative binding free energy” value turned out to be 0.03 kcal/mol. Under TTAATCACGTGACGTG stands 0.11 kcal/mol. Under AGTATCACGTGTGTTC stands 0.13 kcal/mol. The same measure for TGTGACACGTGAGCAG: 0.12 kcal/mol. With TGGATCACGTGGCATG, the “relative binding free energy” value was 0.1 kcal/mol. Under GGAGGCACGTGGGGCT stands -0.24 kcal/mol; under TTATACACGTGCTAGG, 0.09 kcal/mol. As for AATTACACGTGAGTGT, the “relative binding free energy” value was found to be 0.02 kcal/mol. The same measure for CAAGGCACGTGTGGGC: -0.13 kcal/mol; for GGAAGCACGTGATGGA: 0.09 kcal/mol.

Consider TTGTTCACGTGGGCGG, for which the “relative binding free energy” value was 0.23 kcal/mol. Turning to AGTTTCACGTGGTACA, the “relative binding free energy” value turned out to be 0.08 kcal/mol. Under CGGGTCACGTGTTCGG stands 0.17 kcal/mol.

Turning to GAATGCACGTGTCGTG, the “relative binding free energy” value is -0.06 kcal/mol. With TGTTCCACGTGGGTCT, the “relative binding free energy” value is -0.08 kcal/mol. For the sequence AGGTGCACGTGAGAAT, the “relative binding free energy” value was determined as 0.22 kcal/mol. On to ATAGTCACGTGTGTTT, for which the “relative binding free energy” value came to 0.25 kcal/mol. As to AAGTTCACGTGGGTCC, the “relative binding free energy” value was 0.34 kcal/mol. Under TTGAACACGTGTAGTA stands 0.04 kcal/mol. Turning to TTAGGCACGTGGTTCT, the “relative binding free energy” value was -0.17 kcal/mol. The same measure for TTCATCACGTGGATTG: 0.14 kcal/mol; for ATTTGCACGTGTAGTA: 0.04 kcal/mol.

In the case of AGCGTCACGTGGGTTG, the “relative binding free energy” value is -0.06 kcal/mol. Under TGTCGCACGTGCGTTG stands -0.17 kcal/mol; under TAGCTCACGTGGGCGG, -0.04 kcal/mol.
